Measured values published in PMC4336329 (PLoS ONE, 2015).
Out of some 310,000 compounds screened, about 14,000 (4.5%) showed an effect of 50% or more. Effects have a minus sign here. The list shows a part of the results.

These molecules were tested against human ether-à-go-go-related gene (hERG) potassium channel (human, UniProt Q12809) (assay: primary screen, population patch clamp on CHO cells stably expressing hERG).
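Also: peak tail current of the secondary pulse compared with the same well before compound.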

Chain of human ether-à-go-go-related gene (hERG) potassium channel (Q12809 whole entry, looked up): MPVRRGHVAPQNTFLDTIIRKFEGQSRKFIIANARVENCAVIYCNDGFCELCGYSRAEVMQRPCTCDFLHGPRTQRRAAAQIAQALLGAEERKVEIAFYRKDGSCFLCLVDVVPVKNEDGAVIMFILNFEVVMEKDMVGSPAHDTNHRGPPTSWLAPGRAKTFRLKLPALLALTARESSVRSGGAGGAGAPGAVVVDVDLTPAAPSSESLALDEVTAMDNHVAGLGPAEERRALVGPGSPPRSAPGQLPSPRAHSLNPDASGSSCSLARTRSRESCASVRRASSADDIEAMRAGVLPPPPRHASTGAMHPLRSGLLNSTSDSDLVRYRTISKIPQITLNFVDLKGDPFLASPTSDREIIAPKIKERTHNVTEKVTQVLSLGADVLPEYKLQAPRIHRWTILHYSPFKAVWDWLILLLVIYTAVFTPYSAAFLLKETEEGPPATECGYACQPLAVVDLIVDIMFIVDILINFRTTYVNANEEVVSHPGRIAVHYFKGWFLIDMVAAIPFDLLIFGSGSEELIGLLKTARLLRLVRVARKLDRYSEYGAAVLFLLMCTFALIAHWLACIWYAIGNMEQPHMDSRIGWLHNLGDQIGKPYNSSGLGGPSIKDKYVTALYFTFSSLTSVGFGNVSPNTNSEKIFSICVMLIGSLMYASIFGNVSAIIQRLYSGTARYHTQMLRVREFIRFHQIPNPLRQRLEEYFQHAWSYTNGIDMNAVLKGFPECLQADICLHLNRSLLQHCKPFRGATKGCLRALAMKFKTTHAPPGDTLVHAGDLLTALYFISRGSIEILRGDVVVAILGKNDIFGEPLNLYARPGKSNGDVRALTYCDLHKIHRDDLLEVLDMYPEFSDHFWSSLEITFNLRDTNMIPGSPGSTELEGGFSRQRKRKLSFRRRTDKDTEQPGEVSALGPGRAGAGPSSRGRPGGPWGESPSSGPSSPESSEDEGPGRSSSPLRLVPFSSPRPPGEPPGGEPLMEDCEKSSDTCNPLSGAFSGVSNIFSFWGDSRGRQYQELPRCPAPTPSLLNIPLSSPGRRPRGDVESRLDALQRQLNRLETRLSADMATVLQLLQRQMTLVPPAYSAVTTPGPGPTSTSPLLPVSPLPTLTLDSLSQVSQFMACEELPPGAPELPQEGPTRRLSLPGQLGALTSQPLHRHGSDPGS

Row | Compound | hERG current change (%, negative = inhibition) at 10uM
1 | CCCCCN(C(=O)CCC(=O)OCc1ccccc1Cl)c1c(N)n(CCCC)c(=O)[nH]c1=O | -49.8%
2 | CCc1ccccc1NC(=S)N(Cc1cccs1)C1CCCC1 | 7.22%
3 | Cc1ccc(-n2nc3c(N4CCC(C(=O)N5CCC(C(N)=O)CC5)CC4)nnc(C)c3c2C)cc1 | 12%
4 | O=C(Cc1ccccc1)NCC(=O)N1CCc2ccccc2C1 | 1.51%
5 | O=C(Nc1cccc(Cl)c1)c1c(O)c2c(n(Cc3ccco3)c1=O)CCCC2 | 5.45%
6 | Cc1ccc(NC(=O)CSc2ccc(-c3ccco3)nn2)c(C)c1 | -24.4%
7 | CCOC(=O)N1CCN(C(=O)c2ccc3c(=O)n(CCC4=CCCCC4)c(=S)[nH]c3c2)CC1 | 15.4%
8 | O=C(NNC(=O)c1cccnc1SCc1cccc([N+](=O)[O-])c1)c1cccnc1 | -10.1%
9 | O=C(COC(=O)/C=C/c1ccccc1Cl)NCc1ccccc1 | -11.1%
10 | CCCNS(=O)(=O)c1ccc(OCC(=O)NCC2CCCO2)cc1 (stereo not shown) | 29.8%
11 | Cc1c(OCc2ccccc2)c(=O)ccn1Cc1ccccc1 | -10.2%
12 | CN(CC(=O)Nc1ccc(F)cc1[N+](=O)[O-])Cc1ccccc1 | 23.7%
13 | CN(CC(=O)Nc1cccc(F)c1)C(=O)/C=C/c1ccc2ccccc2n1 | 7.19%
14 | CCc1cc[n+](CC(=O)Nc2ccc(Cl)cc2Cl)cc1.[Cl-] | -4.73%
15 | C=CCn1c(C)cc(C(=O)COC(=O)/C=C/c2ccc(OC)cc2)c1C | 12.3%
16 | COc1ccccc1OCC(=O)Nc1ccc(Cl)cc1 | -8.9%
17 | N#Cc1c(N2CCN(C(=O)c3ccccc3)CC2)nc(-c2ccccc2)c2c1CCCC2 | -18.6%
18 | CN1CCC(=O)N([C@H](CO)c2ccccc2)CC1 | 3.76%
19 | C/C(Cl)=C/Cc1c(C)[nH]c2ccc(C)cc2c1=O | 4.26%
20 | CCOC(=O)C1CCN(CCC(=O)Nc2ccccc2)CC1 | -19.7%
21 | Cc1cc(C(F)F)n2ncc(C(=O)NCCc3ccc(Cl)cc3)c2n1 | -45%
22 | CCc1cccc(OCCn2nc(C(=O)O)c3ccccc3c2=O)c1 | 0.597%
23 | O=C(CN(C(=O)CNC(=O)c1cccs1)c1ccccc1F)NC1CCCC1 | 10.6%

Row | Compound | hERG current change (%, negative = inhibition) at 10uM
24 | O=C(CC1SC(N2CCCC2)=NC1=O)Nc1ccc(C(=O)N2CCCC(C(F)(F)F)C2)cc1 (stereo not shown) | 18.8%
25 | COCC(C)N1C(=O)Cc2c1nc(N)c1c(N)nc(N3CCN(c4ccccc4F)CC3)c(C#N)c21 (stereo not shown) | -13.1%
26 | Nn1c(Cc2cccc3ccccc23)nnc1SCn1nnc2ccccc2c1=O | -1.1%
27 | CNc1nnc(-c2cccc(N(C)C)c2)s1 | 2.36%
28 | C/C(=N\NC(=O)c1ccc(N(C)C)cc1)c1ccc(C)cc1C | -3.46%
29 | O=C(CSc1nnc(CNC(=O)c2ccccc2)o1)Nc1ccc2c(c1)OCO2 | -3.52%
30 | CCOC(=O)C1CCCN(Cc2nc(N)nc(Nc3ccc(Cl)cc3)n2)C1 (stereo not shown) | -79%
31 | O=c1c(-c2ccc(O)cc2)coc2cc(O)ccc12 | 13.2%
32 | CCOc1ccc(C(=O)Nc2nnc(C(C)C)s2)cc1OCC | 6.54%
33 | CCCC/C(O)=C/c1nc2ccccc2[nH]c1=O | 5.3%
34 | Cc1nn(-c2ccc(F)cc2)c(Cl)c1/C=C/C(=O)OCC(=O)Nc1ccc(F)cc1F | 15.5%
35 | Clc1ccc(/C=N/N2CCCCC2)cc1 | 7.36%
36 | O=C(Cc1cccs1)NCCc1cn2ccccc2n1 | -11.7%
37 | CN1CCC2(CC1)NC(=O)NC2=O | -6.06%
38 | COc1cc(C=C2C(=O)OC(c3ccccc3)OC2=O)cc(Br)c1O (stereo not shown) | 10.9%
39 | Cc1nn(C)c(C(=O)NNC(=S)NCc2ccco2)c1Cl | 7.69%
40 | COc1ccccc1CCNC(=O)c1nccnc1C(=O)O | 21.6%
41 | Cc1ccc(C)c(S(=O)(=O)N2CCN(C(=O)CSc3ccccc3F)CC2)c1 | -14.7%
42 | Cc1cccc(C(=O)NCc2ccc(S(N)(=O)=O)cc2)c1[N+](=O)[O-] | -5.81%
43 | COC(=O)C1=C(c2ccc(F)cc2F)C[C@@H]2CC[C@H]1N2C(=O)N1CCC(C)CC1 | -6.57%
44 | COc1ccc(OC)c(-n2c(-c3cc(-c4ccc(F)cc4)n[nH]3)n[nH]c2=S)c1 | 20.6%
45 | Cc1cccc(C)c1Nc1nnc(SCC(=O)c2ccc(Br)s2)s1 | 6.62%
46 | COC(=O)CC1c2cc(OC)c(OC)cc2CC(=O)c2cc(OC)c(OC)cc21 (stereo not shown) | 6.73%
